PubChem BioAssay AID651820 (National Center for Advancing Translational Sciences (NCATS), 2012)
In all, about 340,000 compounds went through this assay and about 12,000 (3.5%) were called active. The inconclusive results got no clear call from the source; some entries with a clear call stand among them for comparison. Calls come from the whole dose curve; as a rule, active = well fitted inhibition curve with a large enough effect; inconclusive = small, poorly fitted or top-dose-only effect, or another doubt; inactive = no such curve, though single readings can be large or run the other way. Potencies of inconclusive entries are left out as doubtful fits.

Assay: qHTS Assay for Inhibitors of Hepatitis C Virus (HCV)
Details: Huh7.5.1 HCVcc-Cre (HCVcc is cell-culture hepatitis C virus) infection, luciferase reporter, 44 h; activity change, negative = inhibition: at 41.8 µM (top of the series)
In short: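 Reporter virus HCVcc-Cre (~0.5 moi) infects cells exposed to compound; seeding density 1,000 cells/well with 4 h settling beforehand. Luminescence, 15 sec read, taken 44 h post-infection following a 15 min RT substrate incubation.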
% is set by controls: 0 for no effect and ±100 for the full control effect; potency is the fitted concentration of half-maximal effect; tags give direction and shape of the fitted curve.

Row | Structure (SMILES) | Potency | activity change, negative = inhibition
1 | COC(=O)C1=C(c2cccc(OCc3ccccc3)c2)C[C@@H]2CC[C@H]1N2C(=O)NCc1cccc(C(F)(F)F)c1 | inconclusive [inhibitor, partial curve, poor fit] | 
2 | Cc1cccc(NC(=O)CN(c2ccc(C(C)C)cc2)S(=O)(=O)c2c(C)nn(C)c2C)n1 | inconclusive [inhibitor, single point] | 
3 | Cc1cc(C)c[n+](C2=C([O-])c3ccccc3C(=O)/C2=N\S(=O)(=O)c2cccs2)c1 | inconclusive [inhibitor, single point] | 
4 | Cc1nn(C)cc1S(=O)(=O)NCc1ccccc1Cl |  | inactive: 4.45%
5 | c1ccc(Nc2nc(N3CCCC3)nc(N3CCCC3)n2)cc1 | inconclusive [inhibitor, partial curve] | 
6 | COc1cccc(OCC(=O)Nc2ccc(OC)c(OC)c2)c1 | active: 0.631 µM | 
7 | CCOc1ccc(N(C(=O)c2snc(C(N)=O)c2N)C(C(=O)NC2CCCC2)C(C)C)cc1 (centres undefined) | inconclusive [inhibitor, single point] | 
8 | COc1ccc(CN(C)C(=O)CCc2ccc(S(=O)(=O)N3CCCCCC3)cc2)c(OC)c1 | inconclusive [inhibitor, partial curve] | 
9 | c1ccc(Nc2nnc(SCc3cccc4ccccc34)s2)cc1 | inconclusive [inhibitor, single point] | 
10 | CCOC(=O)c1c(CN(C)C)n(-c2ccccc2)c2cc(Br)c(OC)cc12 | active: 7.94 µM | 
11 | COc1ccc(C(C)=O)cc1COC(=O)CCNS(=O)(=O)c1ccc(C)cc1 | inconclusive [inhibitor, full curve] | 
12 | CC(NO)/C(=N\O)c1cccs1 (centres undefined) |  | inactive: 4.25%
13 | CC(C)CNC(=S)N1CCN(c2nc(-c3ccc(Cl)cc3)cs2)CC1 | active: 11.2 µM | 
14 | O=C(N/N=C/c1ccccc1O)C1CCCC1 | inconclusive [inhibitor, single point] | 
15 | Cc1cc(Cn2nc(C(=O)NCc3cccs3)cc2-c2ccccc2)on1 |  | inactive: 1.03%
16 | COC(=O)c1c(NC(=O)C2CC2)sc2c1CCCC2 | active: 10 µM | 
17 | COc1ccc(N2CCN(CCCNC(=O)c3cc4sccc4n3C)CC2)cc1 | active: 12.6 µM | 
18 | CC1CCCCC1NC(=O)C1CCCN(S(=O)(=O)c2ccc(-n3cnnn3)cc2)C1 (centres undefined) |  | inactive: 3.49%
19 | CN1CCc2cc(Cl)c(O)cc2[C@@H](c2ccccc2)C1 |  | inactive: -6.41%
20 | CCN1C(=O)[C@H]2[C@@H](c3ccc(-c4ccc(Cl)c(Cl)c4)c(OC)c3)N[C@@](Cc3ccccc3)(C(=O)OC)[C@H]2C1=O |  | inactive: -14.3%
21 | Cn1c(N)c(C(=O)Nc2ccc(-c3ccccc3)cc2)sc1=S | inconclusive [inhibitor, single point] | 
22 | CN1CCN(c2ccc(/C=C3\C(=O)NC(=S)N(c4cccc(Br)c4)C3=O)o2)CC1 |  | inactive: -3.3%

Row | Structure (SMILES) | Potency | activity change, negative = inhibition
23 | COc1cccc(C2NC(=O)NC(O)(C(F)(F)F)C2C(=O)c2cccnc2)c1OC (centres undefined) |  | inactive: -21.8%
24 | CC1C/C(=C/c2cccs2)C(=O)/C(=C/c2cccs2)C1 (centres undefined) | inconclusive [inhibitor, single point] | 
25 | O=C(Nc1ccc2oc(-c3ccccc3)nc2c1)c1ccco1 | inconclusive [inhibitor, full curve] | 
26 | COc1ccc(NC(=O)c2cccc(N3C(=O)C4C5CCC(C5)C4C3=O)c2)cc1 (centres undefined) |  | inactive: -12%
27 | Cc1ccc(N2CCN(C(=O)CNS(=O)(=O)c3ccc(Br)s3)CC2C)cc1 (centres undefined) | inconclusive [inhibitor, single point] | 
28 | COC(=O)C1=C(C)N(Cc2ccccc2)C(=NCc2ccccc2)N[C@H]1c1cccc(C(F)(F)F)c1 | inconclusive [inhibitor, single point] | 
29 | c1ccc2c(c1)[nH]c1c(NCC3CCCO3)ncnc12 (centres undefined) | inconclusive [inhibitor, single point] | 
30 | COc1ccc(S(=O)(=O)N2CCCCC2)cc1NC(=O)CCCOc1ccc(C)cc1 | inconclusive [inhibitor, partial curve] | 
31 | COc1ccccc1C(=O)N1[C@@H](C(C)C)COc2cc(Br)ccc2S1(=O)=O | inconclusive [inhibitor, partial curve] | 
32 | c1csc(Cn2nnnc2CN2CCN(c3nc4ccccc4s3)CC2)c1 | inconclusive [inhibitor, single point] | 
33 | CCCC1(c2ccccc2)NC(=O)N(CC(=O)NCC2COc3ccccc3O2)C1=O (centres undefined) | inconclusive [inhibitor, full curve] | 
34 | N=c1c(C(=O)NCc2ccco2)cc2c(=O)n3ccccc3nc2n1C1CCCC1 | inconclusive [inhibitor, single point] | 
35 | CC(=O)c1cc(NC(=O)c2ccc(C)cc2)c(=O)oc1/C=C/N(C)C | inconclusive [inhibitor, partial curve] | 
36 | CC(=O)Nc1ccc(S(=O)(=O)Oc2ccc3c(c2)C(C)=CC(C)(C)N3)cc1 | inconclusive [inhibitor, single point] | 
37 | CCN1/C(=C/c2ccc3cc(C)ccc3[n+]2CC)Sc2ccccc21 | active: 1.58 µM | 
38 | Nc1ccc(N2C(=O)c3ccccc3C2=O)c(Cl)c1 | inconclusive [inhibitor, single point] | 
39 | N[C@@H](Cc1c[nH]c2ccccc12)c1nnc(SCc2ccccc2)o1 |  | inactive: -0.714%
40 | CCOC(=O)c1c(C)[nH]c(C(=O)OCC(=O)Nc2cc(C)ccc2OC)c1C |  | inactive: -1.57%
41 | Cc1ccc(C(C(=O)Nc2ccc3c(c2)OCO3)N(C)C(=O)/C=C\c2ccc3c(c2)OCO3)cc1 (centres undefined) | inconclusive [inhibitor, partial curve] | 
42 | CCCN(CCC(=O)Nc1cc(OC)cc(OC)c1)CC1CC1 |  | inactive: -25.9%
43 | COc1ccccc1NC(=O)CN(Cc1ccco1)C(=O)c1cccs1 | inconclusive [inhibitor, single point] | 
44 | CN(C(=O)c1cccc(NC(=O)Cc2ccc(NC(=O)C3CCCN(C(=O)CCc4ccccc4)C3)cc2)c1)C1CC1 (centres undefined) |  | inactive: -1.51% [at 8.37 µM]
